# Test results as given in ChEMBL document CHEMBL4888484, “Replenishing the malaria drug discovery pipeline: Screening and hit evaluation of the MMV Hit Generation Library 1 (HGL1) against asexual blood stage Plasmodium falciparum ,using a nano luciferase reporter read-out” (2022).
# About 540 (0.36%) of roughly 150,000 compounds showed an effect of 50% or more. The list shows a part of the results.
# Tested on: Plasmodium falciparum
# Test: Primary screen in NF54 nanoGlo assay, in single point, at 2uM, 72h; a lower Z score goes with more inhibition
# Assay type: functional, Erythrocyte
# Conditions: timepoint 72 hour
SMILES,% Inhibition [%],Z score
C=CCNC(=O)c1cc(Br)ccc1F,2,-0.27
O=S(=O)(Nc1ncn(Cc2ccccc2Cl)n1)c1cccs1,-9,1.25
O=S(=O)(Nc1cccc2ccccc12)c1cccs1,35,-3.95
O=C([C@@H]1CCCN1C(=O)c1cc(-c2ccccc2F)n[nH]1)N1CCOCC1,-20,2.38
Cc1[nH]ccc1C(=O)Nc1ccc(Oc2nnn[nH]2)cc1,26,-3.41
COc1ncccc1NC(=O)N(C1CCC(C)CC1)C1CC1 (configuration not stated),-2,0.35
O=C(CCC(=O)c1ccc2c(c1)OCCCO2)NCc1ccccc1,-7,1.26
Cc1cc(NC(=O)N2CCN(c3nccs3)CC2)sn1,-7,0.79
Cc1ccc(C)c(NC(=O)Cn2c(N3CCC(C)CC3)nc(C)cc2=O)c1,-12,1.88
COc1cc(C)c([C@H](C)NC(=O)CN2CCCc3occc3C2)cc1OC,-9,1.6
CCCCN(CCO)C(=O)C[C@H](C)c1cccc(F)c1,-1,0.18
CN(CC1(C)CCOCC1)C1CCN(Cc2ccccc2)CC1,7,-0.62
CN(Cc1ccc(Br)o1)C(=O)CNC(=O)C(C)(C)C,-2,0.23
Brc1cnn(CCN2CCCC2)c1,1,-0.12
CCC(C)(C)N1CCN(C(=O)NCc2cnc(OC)c(Cl)c2)CC1,-11,1.56
Cc1cc(-c2n[nH]c(=O)n2CCc2ccc(F)cc2)n(C)n1,-13,2.26
Cc1ccc2snc(C(=O)NC(C)C)c2c1,-12,2.15
O=C(c1cccs1)N1CCC(C(=O)N(Cc2ccccc2)c2ccccc2)CC1,-6,1.13
COc1cccc([C@@H]2CCCN(S(=O)(=O)NCc3ccccc3)C2)c1,-3,0.31
CCCN(Cc1csc(COc2cc(C)cc(C)c2C)n1)S(=O)(=O)c1ccc(C)cc1,-4,0.56
Cc1cc(CNC[C@@H](O)c2ccc(C(F)(F)F)cc2)cc(C)n1,6,-1.15
CNc1nc(-c2ccc(C(=O)NC3(C(N)=O)CCCC3)cc2)ncc1F,-9,0.82

SMILES,% Inhibition [%],Z score
FC(F)(F)c1cc2c(N3CCC[C@H]3c3cccnc3)nccn2n1,-7,0.99
Cc1cccn2cc(C(=O)N3CCC4(CC3)CNC(=O)C4)cc12,-2,0.37
CC(C)[C@H](N)C(=O)N1CCCC(Oc2ccc(Cl)cn2)C1 (some centres not stated),-12,1.47
O=C(Nc1ccccc1F)C1CCN(c2cc(C3CC3)ncn2)CC1,-16,3.11
CCN(CC)C(=O)c1cc2c(n1C)CCN(Cc1cccc(C)c1)C2,-7,1.26
Cc1ccc(S(=O)(=O)[C@H]2CS(=O)(=O)C[C@@H]2NCC(C)C)cc1,4,-0.46
CC1(C)CN(c2nccc(N3CCN[C@@H]4CS(=O)(=O)C[C@@H]43)n2)CCO1,-3,0.39
Cc1csc([C@@H]2CN(c3cc(C(C)C)nc4ncnn34)CCO2)n1,-1,0.15
C[C@@H](CONS(=O)(=O)c1ccc2ccccc2c1)NC(=O)OC(C)(C)C,-8,1.41
O=C(CN1CCN(CC(=O)N2CCN(S(=O)(=O)c3ccc(F)c(F)c3)CC2)CC1)N1CCCC1,-10,0.88
CCN(CCN1CCCCCC1)Cc1cscn1,-14,1.99
Oc1nc(-c2ccc(F)cc2)cc(C(F)F)n1,-13,2.44
CC(Cn1cccn1)NC(=O)C1=NN(c2ccccc2)C(C(N)=O)C1 (configuration not stated),-5,0.64
COc1ccc(CN(CCc2c[nH]c3ccccc23)C(=O)CN(C(=O)c2ccccc2C)C(C)C)cc1OC,-16,2.33
CCc1ccc(C(C)NC(CC)c2c(C)nn(C)c2C)o1 (configuration not stated),3,-0.39
CN(CC(=O)NCCC#N)Cc1ccco1,-8,1.12
Clc1ccsc1CN1CCC[C@H](CN2CCOCC2)C1,-11,1.22
Cc1cccnc1C(NCC(=O)N1CC(C)OC(C)C1)C(C)C (configuration not stated),-9,0.87
C=CCNC(=O)[C@H]1CCCN(C(=O)Nc2ccc(NC(=O)Nc3ccc(C)cc3C)cc2)C1,-7,0.95
CN(C)c1ccc2nnc(CNc3ccc(C(F)(F)F)nn3)n2n1,-8,1.43
Cc1cccnc1[C@H](C)NC(=O)N1CCOCC1,-15,2.76
COCCOc1ccnc(-c2noc([C@@H]3CCCN3Cc3cn(C)c4ccccc34)n2)c1,15,-1.75

SMILES,% Inhibition [%],Z score
CN(CCc1cn[nH]c1)c1nc2nonc2nc1N1CCCCC1,-12,1.37
CNC(=O)Nc1cc2c(cc1N1CCCC1)n(C)c(=O)n2C,-8,1.49
Cc1noc(CNC(=O)C2(c3ccc(Cl)c(Cl)c3)CCC2)n1,13,-1.66
Cc1cccc(-n2nc(C)c3c(NC4CCC(NC(=O)C5CCCC5)CC4)nc(C)nc32)c1 (configuration not stated),7,-0.98
COc1nc2c(cc1CNC(=O)c1ccc(=O)[nH]n1)C(=O)N(C1CCCC1)C2,11,-1.46
CN1CCO[C@H](C(=O)Nc2ccccc2Nc2ccncc2)C1,-9,1.72
CCO[C@H]1COC[C@@H]1NC(=O)CN1CCCCC1=O,-4,0.6
O=C(c1ccccc1Cn1ccnn1)N1CCC[C@@H]2COC[C@@H]21,-19,2.02
Cc1nn(CCc2nnc(-c3cc4nc(C5CC5)cc(C(F)F)n4n3)o2)c(C)c1Br,28,-3.77
COC(=O)C1(N(C)Cc2cnn(C)c2)CCCCC1,-4,0.47
C[C@H](NC(=O)CCCN1CCCC1=O)C(F)(F)F,-23,1.99
O=C([C@@H]1CCCCN1S(=O)(=O)c1cc(F)ccc1F)N1CCCC1,3,-0.61
Cn1cc(C(N[C@@H]2C=C[C@H](CO)C2)c2cccc(F)c2)cn1 (some centres not stated),-13,1.78
Cc1nc(C=Cc2nc([C@@H]3CCCCCN3)no2)cs1,5,-0.51
Cc1cccc(NC(=O)C(=O)N(C)[C@@H](C)CC#N)c1C#N,-12,1.44
O=C(Nc1cccnc1)c1c2c(nc3ccccc13)C(=O)N(C1CCCCC1)C2,-7,0.72
CC(C)c1nc(CN2CCNC(=O)[C@@H]2Cc2ccccc2)co1,-16,1.59
O=C(NCc1cccnc1-n1ccnc1)c1ccc2[nH]c(=O)[nH]c2n1,0,0.08
O=C(CCn1cc(Cl)cn1)N1CCC2(CC1)c1ccccc1C[C@@H]2O,2,-0.27
Cc1ccc(S(=O)(=O)Cc2noc(CC(C)C)n2)c(C)c1,-2,0.21
CCN1[C@@H]2CCCC[C@@]2(C(=O)NCCC(C)C)CCS1(=O)=O,-17,2.01
CCC(=O)Nc1nc2ccc(NS(=O)(=O)c3cccc4nsnc34)cc2s1,29,-4.19

SMILES,% Inhibition [%],Z score
COCCN(C)C[C@H]1C[C@H](CO)CN(C(=O)c2[nH]nc(-c3ccccc3)c2C)C1,-1,0.09
Cc1ccc2c(c1)[C@@H](NCc1cnn(C)n1)CCC2,1,-0.16
CN(Cc1ccn(C)n1)C(=O)NCc1noc2ccc(F)cc12,4,-0.52
OC[C@H]1CCCN(c2nnc(Cc3ccccc3)o2)C1,-3,0.37
O=C(CN1CCOCC1)Nc1n[nH]c(Cc2cccc(F)c2)n1,-2,0.34
Cc1cc(N2CCOC[C@H]2C(N)=O)nc(C(C)C)n1,-6,0.55
Cc1c(-c2ccccc2)nn(C)c1NC(=O)[C@H]1CCCO1,-9,1.69
Cc1cccc(NC(=O)C2OCC(=O)N(C)C2c2cccc(F)c2)n1 (configuration not stated),-2,0.24
CCNc1ccc(Cl)cc1C(=O)N1C2CCC1CC(=O)NC2 (configuration not stated),-17,1.8
NC[C@H]1CN(C(=O)C2(c3cccs3)CCCCC2)CCCO1,16,-2.07
CCCc1cc(N2CC(Cc3cc(OC)cc(OC)c3)C2)n2ncnc2n1,-3,0.46
CS(=O)(=O)NCCn1ccc(-c2cnccn2)n1,-2,0.26
O=C(N[C@@H]1CN(Cc2c(F)cccc2F)C[C@H]1CO)C1CCC1,-6,0.89
CCCNC(=O)CCN[C@H]1CCS(=O)(=O)c2ccc(Cl)cc21,4,-0.46
CCn1nc(C2CC2)nc1-c1ccc(O)c(Cl)c1,0,0.02
COc1cccc(C(=O)N2CCN(C(=O)c3cncnc3C)CC2)c1,-7,0.66
COc1ccc(N2CCN(c3nccn4nc(-c5cccs5)cc34)CC2)cc1,30,-0.84
N#CC(c1ccccc1)(c1ccccc1)C(C#N)(c1ccccc1)c1ccccc1,0,-0.03
O=S(=O)(Cc1ccccc1)N1CCN(C2CCCC2)CC1,7,-0.87
Cc1ccc(C(=O)N2CCCC(C(=O)N3CCC(C4CCOC4)C3)C2)cc1 (configuration not stated),-6,0.93
